Here are results for 42 sequences from PMC7819943, “Rice protein-binding microarrays: a tool to detect cis-acting elements near promoter regions in rice”.

This is one part of the list.

In the assay the target is T1, OsWOX13 (Oryza sativa, UniProt Q5QMM3 1-267).
T1 sequence: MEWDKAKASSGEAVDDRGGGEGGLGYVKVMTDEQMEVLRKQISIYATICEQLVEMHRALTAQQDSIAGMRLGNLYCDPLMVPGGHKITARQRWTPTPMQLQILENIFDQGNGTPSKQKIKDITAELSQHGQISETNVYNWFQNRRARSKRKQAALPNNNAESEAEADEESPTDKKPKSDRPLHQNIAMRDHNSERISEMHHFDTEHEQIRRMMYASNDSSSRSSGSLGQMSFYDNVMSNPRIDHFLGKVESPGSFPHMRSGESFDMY
Put plainly: protein-binding microarray (RPBM); PBS, 2% BSA, 51.3 ng/ul salmon testes DNA, 50 uM zinc acetate, 200 nM TF, 25 C, 1 h; high values mean tight binding. The note with it: protein: recombinant; tags: N-terminal polyhistidine and DsRed monomer fusion (pET32a); label: CyDye5-dUTP incorporated in the synthesized complementary strand; 3' TTTTT single-stranded linker to array surface; dsDNA, one strand shown. Summed up:
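Transcription factors were made in E. coli BL21-CodonPlus as N-terminal fusions to a polyhistidine tag and DsRed, then purified on Ni–NTA. After primer extension with Cy5-dUTP and blocking with 2% BSA, a custom Agilent array was exposed for 1 h at 25 °C to 200 nM protein in PBS, 2% BSA, salmon testes DNA and 50 µM zinc acetate. Washed arrays were scanned on an Axon 4000B, and the binding signal is per-feature fluorescence intensity in arbitrary units.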
Regarding “CGCGTTGTTAATTAAACCCCGGACAGATTGCATAATCACTCGGAGTCACCTAGTGCAG”, the binding signal is 17900 fluorescence intensity (a.u.).

Take “TAACTAATTACGCAGATTGCGACTAATTTGCGAGATGAATCGGAGTCACCTAGTGCAG”: the binding signal was 33300 fluorescence intensity (a.u.).

Regarding “GATTTGATTTGATTATACTGGATGGGAAATGGGAGGTGGACGGAGTCACCTAGTGCAG”, the binding signal was 37800 fluorescence intensity (a.u.).

In the case of “GCTGACGTGGCAATCTAATCACCATCTAAGTCAGCAAGATCGGAGTCACCTAGTGCAG”, the binding signal was 18900 fluorescence intensity (a.u.).

As to “AATCAACCCGTACCAATTAATGATAGAGCTACCACTGAACCGGAGTCACCTAGTGCAG”, the binding signal was 3400 fluorescence intensity (a.u.).

Take “AACTCTAATTATAAATCAATAAATTCGTCAAAGAAAATCACGGAGTCACCTAGTGCAG”: the binding signal was 27700 fluorescence intensity (a.u.).

Regarding “TGATATTAATTAGAACTCATAAATCAACAATTAAGATAACCGGAGTCACCTAGTGCAG”, the binding signal was 4420 fluorescence intensity (a.u.).

For “GTGATTGGCCACCTTCACCTCATTGGCTCCCTCCCGTATGCGGAGTCACCTAGTGCAG”, the binding signal is 37700 fluorescence intensity (a.u.).

Take “GAGGAAATTAAAATTTCCTTTAAAATTCATTGGCCGAGAACGGAGTCACCTAGTGCAG”: the binding signal is 4540 fluorescence intensity (a.u.).

As to “AGCTAATTAAGCTATAGCTATATAGCTCGCAGTTGGTCGCCGGAGTCACCTAGTGCAG”, the binding signal was 17600 fluorescence intensity (a.u.).

“TTATAATTATATTATAATTGTCTGCTCTAATTTCGTTACTCGGAGTCACCTAGTGCAG”: the binding signal was 44400 fluorescence intensity (a.u.).

On to “AAAGTAATTAGTGTTTTCTTGATTAGTCTTTTCCTTGTATCGGAGTCACCTAGTGCAG”, for which the binding signal was 42700 fluorescence intensity (a.u.).

Consider “GATTGATGCAATTTAAATTATACTTAGTATTGGTGTATAACGGAGTCACCTAGTGCAG”, for which the binding signal was 11400 fluorescence intensity (a.u.).

“TGTGATAGAGAATCAAGTAGATATCGATCAGATAATATCTCGGAGTCACCTAGTGCAG”: the binding signal is 5210 fluorescence intensity (a.u.).

In the case of “ACTTGATTTGGTTTCTGACCAAATTAAGAGAATATCTGGACGGAGTCACCTAGTGCAG”, the binding signal is 26300 fluorescence intensity (a.u.).

On to “AATTAATCAAGTGCTAGTGGATGGGTTCCGACCTCCGAACCGGAGTCACCTAGTGCAG”, for which the binding signal was 3550 fluorescence intensity (a.u.).

Regarding “GTGTAGATTTATTAACATCTATATAAATGTGGGCAATGCTCGGAGTCACCTAGTGCAG”, the binding signal was 8420 fluorescence intensity (a.u.).

With “AATAATTGCTATATTTTGGGGCGTAGGTAGTAGTAGATAACGGAGTCACCTAGTGCAG”, the binding signal was 12900 fluorescence intensity (a.u.).

In the case of “GGGAATAAAATTAATTAAACAATGTAGATACTCGCCCTACCGGAGTCACCTAGTGCAG”, the binding signal was 20600 fluorescence intensity (a.u.).

On to “CCGTGCTTGATTGGCAAATGGATTAAAGAACCGCTTTTCTCGGAGTCACCTAGTGCAG”, for which the binding signal was 42700 fluorescence intensity (a.u.).

With “CCGAACGATAATTATGTTCGATTTGTAAAATCCCAATGACCGGAGTCACCTAGTGCAG”, the binding signal is 16500 fluorescence intensity (a.u.).

For “TTTGCAAATCATCACTTTTCATGCTACGGGCATGCAAATCCGGAGTCACCTAGTGCAG”, the binding signal was 3290 fluorescence intensity (a.u.).

As to “GCAAGGGTAATTACAAATTAAATAATTAAGTCATAATAAGCGGAGTCACCTAGTGCAG”, the binding signal is 31100 fluorescence intensity (a.u.).

“TGTAATTAGCCAGTGATTTGCTTAGAAAATCAACTCCATTCGGAGTCACCTAGTGCAG”: the binding signal is 34300 fluorescence intensity (a.u.).

Take “TATATATATATATATATACTGAAAACCTGATAATTATTGTCGGAGTCACCTAGTGCAG”: the binding signal is 6890 fluorescence intensity (a.u.).

For the sequence “CGACTTTAACTGATTAATCGGTGAAAACCGACTAATCCACCGGAGTCACCTAGTGCAG”, the binding signal was 15600 fluorescence intensity (a.u.).

As to “ATAAATTTTGGGCCGTAATTGTGTTACGGTGGATGAGAGGCGGAGTCACCTAGTGCAG”, the binding signal is 14300 fluorescence intensity (a.u.).

“TTGTTTAACTGACATTTGGGTCCCGCATATTTGTTTAATCCGGAGTCACCTAGTGCAG”: the binding signal was 6740 fluorescence intensity (a.u.).

For “TCTAATTTCATAACATACAAACTCAAAACTGCTACTCCCTCGGAGTCACCTAGTGCAG”, the binding signal is 11500 fluorescence intensity (a.u.).

In the case of “AGTGATGTAAAATCTTTAGTTCTGTATGATTTTGTATCGTCGGAGTCACCTAGTGCAG”, the binding signal is 3320 fluorescence intensity (a.u.).

On to “TTTATAATTAGTATTCAAACATCCGATGTGGTAGGGACTTCGGAGTCACCTAGTGCAG”, for which the binding signal was 16900 fluorescence intensity (a.u.).

Consider “CTTGATTGTTCTTTCTTGCTCAAATGCCGGCCTGTGTTGGCGGAGTCACCTAGTGCAG”, for which the binding signal was 53200 fluorescence intensity (a.u.).

Regarding “GTGCTCTTTAATTATCACTTTGTGCGCACTTTTCTTTGATCGGAGTCACCTAGTGCAG”, the binding signal was 6410 fluorescence intensity (a.u.).

As to “AATTCAATTATTTACTCCAAAATTTATACTACTAGAACCACGGAGTCACCTAGTGCAG”, the binding signal was 11500 fluorescence intensity (a.u.).

With “CTTAACCAAAATCAGCATCCCAATTCCCAAACCTCTCAAGCGGAGTCACCTAGTGCAG”, the binding signal is 3720 fluorescence intensity (a.u.).

For the sequence “TCAGCTTATTGACTTATATGATTTATAAGCCAATGGATTTCGGAGTCACCTAGTGCAG”, the binding signal was 11100 fluorescence intensity (a.u.).

In the case of “ATACGGTGAATAAATTTATACAAACTGCAACTCCAATATCCGGAGTCACCTAGTGCAG”, the binding signal is 10200 fluorescence intensity (a.u.).

For “TTGGCCTAATTGCTAACTGCAATTTATCTGAAAATTGTTTCGGAGTCACCTAGTGCAG”, the binding signal is 26200 fluorescence intensity (a.u.).

In the case of “CAATAATAGGATTAGAATGAAGAAAGCACCCCTGAGCTTGCGGAGTCACCTAGTGCAG”, the binding signal was 7340 fluorescence intensity (a.u.).

Consider “ATAATTATTTGTTTTCAGTCATGTATCTTCATCTTATACACGGAGTCACCTAGTGCAG”, for which the binding signal was 6340 fluorescence intensity (a.u.).

In the case of “GCTAATGACATAACAACATACTAATAGGCCATGTCTGGATCGGAGTCACCTAGTGCAG”, the binding signal is 20900 fluorescence intensity (a.u.).

For the sequence “TTGTCGTACAATAATTGAAGTTCAAATTCAACGTCAACTTCGGAGTCACCTAGTGCAG”, the binding signal is 5890 fluorescence intensity (a.u.).
